According to PubChem BioAssay (NCI):
Where “and” joins values, the source holds several entries; their conditions need not be identical. Equal entries are not always repeated.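 In this assay, cells in 96-well plates receive the compound at five concentrations for 48 hours. Endpoints are linearly interpolated between the surrounding concentrations. GI50 = concentration required for 50% inhibition of growth. TGI: total growth inhibition.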

System: NCI-H322M lung
Assay: NCI anticancer screen, dose series, 48 h

SMILES	GI50 [µM]	TGI
Cc1cc(C2=NNC(=O)Cc3cc4c(cc32)OCCO4)cc(C)c1N	4.74	> 100 µM
CCCCCC(=O)Nc1nc[nH]c1C(N)=O		> 100 µM
Nc1ccc(N=Nc2ccc(-c3ccc(O)cc3)cc2)c2ccc(S(=O)(=O)O)cc12		> 100 µM
N=c1nc2n(cc1F)[C@@H]1O[C@H](CO)[C@@H](O)[C@@H]1O2		> 100 µM
OCC1OC(OCC(O)C(O)C(O)C(/C=N/Nc2ccccc2)=N/Nc2ccccc2)C(O)C(O)C1O (stereo not given)		> 100 µM
COC(=O)[C@]12CSC[C@H]1C[C@H](c1ccccc1OC)N2		> 100 µM
N#Cc1ccc(N2Cc3ccccc3OC3=C2C(=O)c2c(O)ccc(O)c2C3=O)cc1	3.31	12 µM
COc1cc(C=C2N=C(c3ccccc3)N(n3c(-c4ccccc4)nc4ccccc4c3=O)C2=O)cc(OC)c1OC		44.3 µM
COc1cc(/C=C/C(=O)OCCc2ccccc2)ccc1O		30.5 µM
O=C(c1ccco1)c1nc2cc(F)ccc2[n+]([O-])c1C(F)(F)F	39	> 100 µM
CCN1C(NN)=NS(=O)(=O)c2ccccc21		> 100 µM
COc1ccc(N=C2C(=Nc3ccc(OC)cc3)N(S(=O)(=O)c3ccccc3)C(=S)N2c2ccccc2)cc1		> 100 µM
NC(=S)Nc1cc(Cl)ccc1Cl		> 100 µM
O=C1C(c2c(O)[nH]c3ccc(S(=O)(=O)O)cc23)=Nc2ccc(Br)cc21		> 100 µM
COc1cccc2c1-c1c(c3ccc([N+](=O)[O-])cc3c(=O)n1CCCCl)C2=O	40.9	> 50 µM
O=C(Nc1ccc(CN2CCOCC2)cc1)c1[nH]ncc1Nc1ncnc2sccc12	0.331	4.32 µM
CN=C(NC#N)NCCSCc1nc[nH]c1C		> 100 µM
COc1cc(=O)n2c3ccccc3n(C)c2c1C#N		> 100 µM
CCCCCCCCOC(CO)CO		> 100 µM
CC(=O)O[C@H](C[C@H](C(C)C)N(C)C(=O)[C@@H](NC(=O)[C@H]1CCCCN1C)C(C)C)c1nc(C(=O)N[C@@H](Cc2ccccc2)C[C@H](C)C(=O)O)c(C(C)C)s1	< 0.00333	> 33.3 µM
CCOC(=O)/C=C/c1cc2cc(-c3csc4ccccc34)ccc2[nH]1	10.4	22.4 µM
CCOC(=O)Nc1cc2c(c(N)n1)N=C(c1ccccc1)[C@H](C)N2		30.2 µM
Nc1c(-c2nc3ccccc3o2)sc(=S)n1-c1ccc(Cl)cc1		> 100 µM
C[C@]12CCc3nonc3C1CC[C@@H]1C2CC[C@]2(C)NC(=O)CCC12 (stereo not given in full)		> 100 µM
N/C(=N\N=C\c1c[nH]c2cc(C(F)(F)F)ccc2c1=O)NO		> 10 µM
COc1ccc(N=Nc2c(-c3ccccc3)nn(C(=O)CC(=O)Nc3cccc(Cl)c3)c2-c2ccccc2)cc1		> 100 µM

SMILES	GI50 [µM]	TGI
Oc1ccc2oc3c(O)c4ccccc4cc3c2c1		> 100 µM
COC1CCC(O)C(/C=C/[N+](=O)[O-])C1 (stereo not given)		24.2 µM
CC(=O)c1cc2c(cc1Nc1c3ccccc3nc3occ(Cl)c13)OCO2	0.123	2.18 µM
Cc1cccc(C(=O)/C=C/SC(=NC#N)SCc2ccccc2)c1	21.4	52.1 µM
O=C(N/C(=C\c1cccc([N+](=O)[O-])c1)c1nc2[nH]c(=S)[nH]c(=O)c2[nH]1)c1ccccc1		> 100 µM
CCOC(=O)CC1(O)CCCCC1(Sc1ccc(C)cc1)Sc1ccc(C)cc1 (stereo not given)		> 100 µM
CCCCCCCCCCCCCCCC(=O)OCC1CCCN2CCCCC12 (stereo not given)		> 100 µM
CN(C)c1nc2n(CCO)c(-c3ccccc3)c(-c3ccccc3)nc-2c(=O)n1		> 100 µM
c1ccc(-c2cc(C3CO3)c3ccccc3n2)cc1 (stereo not given)		39.6 µM
O=C(CCCN1CCC2(CC1)NC(=O)c1ccccc1O2)c1ccc(F)cc1		> 100 µM
Cc1cccc(/C=C2\CCCc3ccccc3C2=O)c1		78.5 µM
NNC(=S)N/N=C(/C(=O)Nc1cc(Cl)ccc1Cl)C1C(=O)Nc2ccccc2S1=O (stereo not given)		> 100 µM
CNC(=O)c1ccc2cc(C3(O)CCn4cncc43)ccc2c1 (stereo not given)	> 100	> 100 µM
O=C(Nc1ccc(Cl)cc1F)c1cc(I)ccc1O	0.993	18.7 µM
O=C1Nc2ccccc2S/C1=C\c1cccc(C(F)(F)F)c1		> 100 µM
CC(=O)O[C@]1(C)OC(=O)[C@@H](C)N1[N+](=O)[O-]		> 100 µM
CC(=O)c1c(C)n(C)c2c1nnc1ccccc12		> 100 µM
COc1ccc(OC)c(C23CCCC(C2)N(C)CC3)c1 (stereo not given)		> 100 µM
COc1ccc2c(c1)C(=O)C(=O)c1cc(O)c(OC)c(OC)c1-2	3.09	14.8 µM and 11.7 µM
COC(=O)c1ccc(NC(=O)Nc2ccc3oc(=O)c4ccccc4c3c2)cc1	> 100	> 100 µM
Cn1cc(C2=C(c3cccnc3)C(=O)NC2=O)c2ccccc21	> 25	> 25 µM
CC1(C)CC(=O)C2=C(C1)S/C(=C1/SC3=C(S1)C(=O)CC(C)(C)C3)S2		> 251 µM
CN[C@@H](C)[C@@H](N)c1ccccc1		> 100 µM
c1cc(-c2ccc(-c3ccc(C4=NC5CCCCC5N4)cc3)o2)ccc1C1=NC2CCCCC2N1 (stereo not given)		2.69 µM
COc1ccc2c3c(n(Cc4ccccc4)c(=O)c2c1)-c1cc(OC)c(OC)cc1C3C (stereo not given)		> 100 µM
